# Measurements from PubChem BioAssay AID652104 (National Center for Advancing Translational Sciences (NCATS), 2013).
# Among all 410,000 compounds or so, about 7,200 (1.8%) were called active. Inconclusive means that the source gave no clear call. Such entries were picked first, then a sample of the others. The call rests on the fitted dose curve; in most records, active means well fitted activation curve with a large enough effect; inconclusive means small, poorly fitted or top-dose-only effect, or another doubt; inactive means no such curve, though single readings can be large or run the other way. Potencies of inconclusive entries are left out as doubtful fits.
# Assay: qHTS of TDP-43 Inhibitors; further: nearly all actives have a fitted effect of over 50% in size; on growth rescue (activation): % of control where 0% means no effect
# Conditions: TDP-43 expressing yeast growth rescue, BacTiter-Glo, 24 h; growth rescue (activation): at 46.1 µM (top of the series) unless noted
# Method in brief: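 Growth rescue of TDP-43-toxic yeast measured as ATP luminescence (BacTiter-Glo). Cells grown to mid-log in raffinose, induced in galactose at OD600=0.02, exposed to compound 24 hr at 30 deg C.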
# Potency means the concentration at half of the fitted maximal effect; tags describe the fitted curve by direction and shape.
SMILES,Potency,growth rescue (activation)
COc1cccc(CNC(=O)C(C)n2c(=O)cc(-c3ccccc3)c3c(C)nn(C)c32)c1 (stereo not drawn),active: 22.4 µM,–
O=C(N/N=C(\c1ccccc1)c1ccccn1)c1cccc([N+](=O)[O-])c1,–,inconclusive: -53.5% [activator]
Cc1[nH]c2ccccc2c1SCC(=O)N1CCCc2ccccc21,"inconclusive [activator, single point]",–
CNc1cccc(-c2ccc(C(C)=O)s2)n1,"inconclusive [activator, full curve, poor fit]",–
O=C(Cn1cc(SCc2c(F)cccc2Cl)c2ccccc21)N1CCCC1,inactive,–
COc1ccc(NC(=O)N2CCN(S(=O)(=O)c3ccc4c(ccn4C)c3)CC2)c(OC)c1,inactive,–
CC(=O)NC(CC(=O)OCC(=O)Nc1cc(S(=O)(=O)N2CCCCC2)ccc1C)c1ccccc1 (stereo not drawn),"inconclusive [activator, partial curve]",–
N/C(=N\OC(=O)c1ccc([N+](=O)[O-])cc1Cl)c1ccccn1,"inconclusive [activator, single point]",–
CC1=NN(C(N)=S)C(=O)C1N=Nc1c(C)cc(C)cc1C (stereo not drawn),"inconclusive [activator, partial curve]",–
Cc1ccc(NC(=S)NC(=O)C2CCC2)cc1C,"inconclusive [activator, partial curve]",–
COc1ccc(C(=O)Nc2cccc3nc(C)ccc23)c(OC)c1,"inconclusive [activator, partial curve]",–
CC(C)(C)OC(=O)C[C@H]1C/C=C\C[C@H](CC(=O)N[C@H](CO)Cc2ccccc2)C(=O)N2CCC[C@@H]2COC1=O,inactive,–
COCCOC(=O)c1c(-c2ccccc2)c(-c2ccccc2)nn(C)c1=O,inactive,–
CCC(C)n1c(=S)[nH]c2ccccc2c1=O (stereo not drawn),–,inconclusive: 36.4% [activator]
Cc1cccc(CCN=c2c([N+](=O)[O-])nn(-c3ccccc3)n2O)c1,active: 15.8 µM,–
COc1ccc(NC(=O)C2CCCN(c3nnc(C)c4c(C)n(-c5ccccc5)nc34)C2)cc1Cl (stereo not drawn),inactive,–
CCN(C(=O)C1CCCN(c2nc(-c3ccc(OC)cc3)no2)C1)c1ccccc1F (stereo not drawn),"inconclusive [activator, single point]",–
COc1ccccc1N1CCN(C(=O)c2ccc3[nH]c4c(c3c2)CC(C)CC4)CC1 (stereo not drawn),"inconclusive [activator, single point]",–
CCn1ncc(Br)c1C(=O)Nc1cc(C)ccc1F,"inconclusive [activator, single point]",–
CCCCC(=O)Nc1nn(CC)c2nc3c(C)cccc3cc12,"inconclusive [activator, partial curve]",–
CCN(CC)c1ccc(/C=C2/C(=O)ON=C2C)cc1,"inconclusive [activator, partial curve]",–
Cc1ccc(Sc2c([N+](=O)[O-])c(C)nn2C)cc1,"inconclusive [activator, single point]",–
Cc1cccc(NC(=S)NCc2ccc3[nH]c4c(c3c2)CCCC4)c1,"inconclusive [activator, single point]",–

SMILES,Potency,growth rescue (activation)
O=C(N[C@@H](CO)C(=O)NCc1ccccc1)c1ccc(C(F)(F)F)cc1,"inconclusive [activator, full curve, poor fit]",–
O=C(NCC(c1ccco1)N1CCc2ccccc21)c1ccccc1Br (stereo not drawn),active: 14.1 µM,–
COc1ccc(S(=O)(=O)Nc2cccc3c2O[C@H](CN(C)Cc2ccc(Cl)c(Cl)c2)[C@@H](C)CN([C@H](C)CO)C3=O)cc1,"inconclusive [activator, single point]",–
CCN(CC)c1nc(N)c2c(N)nc3c(c2c1C#N)CC(c1ccccc1)O3 (stereo not drawn),inactive,–
CCOC(=O)C1CCN(c2cc(=O)n(Cc3ccc(F)cc3)c(=O)[nH]2)CC1,"inconclusive [activator, full curve]",–
Cc1ccc(C(=O)O/N=C(\N)c2ccccc2)c(Cl)c1,–,inconclusive: -93.9% [activator]
COCCN(C(=O)c1ccccc1F)c1nnc(-c2ccc(OC)cc2)s1,inactive,–
CCOC(=O)c1cc2c(C)nn(-c3ccccc3)c2s1,inactive,–
Cc1ccc(C(=O)NCCSc2c(C)[nH]c3ccccc23)cc1[N+](=O)[O-],"inconclusive [activator, partial curve]",–
CCc1noc(C)c1C(=O)N1CCSC1=Nc1cccc(Cl)c1C,"inconclusive [activator, single point]",–
C[C@H](O)[C@@H]1C(=O)N2CCc3c([nH]c4ccccc34)[C@@H]2C[C@@H]1N(C)C(=O)NC1CCCCC1,"inconclusive [activator, single point]",–
O=C(/C=C/c1c(F)cccc1Cl)N1CCc2ccccc2C1,active: 7.94 µM,–
COC(=O)N1C(=O)[C@@](c2ccccc2)(C2CCCCC2)N1C(=O)OC,active: 17.8 µM,–
COc1ccc(C(=O)O/N=C(\N)c2ccccc2)cc1,–,inconclusive: -82% [activator]
CCCOC(=O)c1ccc(-c2c(C)noc2-c2ccc(OC)cc2O)o1,"inconclusive [activator, single point]",–
CCc1ccccc1N(C)C(=O)c1ccc2c(=O)n3c(nc2c1)CCCCC3,"inconclusive [activator, single point]",–
CC1CC(C)CN(C(=O)c2cccc(N3C(=O)c4ccccc4C3=O)c2)C1 (stereo not drawn),"inconclusive [activator, single point]",–
CC1(c2cccc3ccccc23)OC(=O)c2ccccc21 (stereo not drawn),"inconclusive [activator, single point]",–
Cc1cc(C)n(-c2nc(NCC(C)O)c3c4c(sc3n2)CCCC4)n1 (stereo not drawn),"inconclusive [activator, partial curve]",–
c1ccc2c(c1)nc(Nc1ccc3c(c1)OCO3)c1nnnn12,"inconclusive [activator, full curve]",–
COc1ccc(OCc2cc(C(=O)N(C)Cc3cc(C)no3)no2)c(Cl)c1,"inconclusive [activator, partial curve]",–
Cc1ccc(-c2nc3c4ccccc4ccn3c2Cc2cccc(Cl)c2)cc1,"inconclusive [activator, full curve]",–
Brc1ccc(-c2nc(-c3ccncc3)no2)o1,active: 12.6 µM,–

SMILES,Potency,growth rescue (activation)
CC1(C(=O)NS(=O)(=O)c2ccccc2Cl)CCN1C(=O)c1cccc2ccccc12 (stereo not drawn),"inconclusive [activator, single point]",–
COc1ccc(-c2cc(N3C(=O)Nc4ccccc4N3O)n[nH]2)c(OC)c1,"inconclusive [activator, partial curve]",–
CCN1C(=O)[C@H]2[C@@H](c3ccc(C)cc3)N[C@]3(CCCN(Cc4ccc(C(F)(F)F)cc4)C3=O)[C@H]2C1=O,"inconclusive [activator, partial curve, poor fit]",–
CC(=O)c1cccc(Nc2nc(-c3ccccc3)nc3ccccc23)c1,"inconclusive [activator, full curve]",–
CCC(=O)Nc1nonc1-c1nc2ccccc2n1CCC(C)C,inactive,–
COC(=O)CCC(=O)Nc1ccc2oc3c(c2c1)CCCC3,"inconclusive [activator, partial curve]",–
Cc1cc(C)nc(/N=c2/ssnc2Cl)c1,active: 2.82 µM,–
CC(C)C(=O)Nc1ccc(Sc2ccc(F)cc2)cc1,"inconclusive [activator, partial curve]",–
COc1ccccc1N1CCN(C(=O)c2ccc(-c3ccccc3)cc2)CC1,active: 17.8 µM,–
O=[N+]([O-])c1ccc(N2CCN(c3ccccc3F)CC2)c(S(=O)(=O)N2CCOCC2)c1,"inconclusive [activator, single point]",–
CCn1c(Sc2ccc(N)cc2Cl)nc2ccccc21,"inconclusive [activator, single point]",–
CCN(c1ccccc1)S(=O)(=O)c1ccc2c(c1)N(C(C)=O)CCS2,inactive,–
CC(C)NC(=O)NC(=O)CSc1nnc(C(F)(F)F)n1C,–,inactive: 7.75% [at 9.22 µM]
Cc1cccc(NC(=O)CSCC(=O)N2CCN(c3cccc(C(F)(F)F)c3)CC2)c1,"inconclusive [activator, single point]",–
Cc1ccc(C(=O)NCc2ccccc2)cc1Br,"inconclusive [activator, partial curve]",–
Cc1nc2c(C(=O)NCCc3ccc(Cl)cc3)cnn2c(C)c1Cc1ccc(F)cc1,active: 20 µM,–
COc1cccc2sc(Nc3nc4ccc(NC(C)=O)cc4s3)nc12,"inconclusive [activator, full curve, poor fit]",–
COc1ccc(S(=O)(=O)NCCSc2ccccc2)cc1OC,"inconclusive [activator, full curve, poor fit]",–
CCCn1c(NC(=S)Nc2ccccc2)nc2ccccc21,"inconclusive [activator, full curve]",–
Cc1cc(Cl)c(S(=O)(=O)NC2CCCC2)cc1OCC(N)=O,"inconclusive [activator, partial curve]",–
Cc1ccc(CNC(=O)C2CCN(C(=O)Nc3ccc(C)cc3)CC2)cc1,inactive,–
CC(C)c1ccc(OCC(=O)NCC(c2ccc(Cl)cc2)N2CCOCC2)cc1 (stereo not drawn),"inconclusive [activator, partial curve]",–
